Data from the supplement of paper PMC9446081.
The whole screen tested about 39,000 compounds, of which about 220 (0.56%) showed activity. The list shows a part of the results.

Test system: Escherichia coli K-12 BW25113
Assay: relative growth (OD600 normalised to plate interquartile mean) (fraction); higher = less growth inhibition, active = 0.2 or less
Settings: 50 µM; LB; incubation time: overnight (16-24 h)
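Further: static incubation at 37 °C against the wild-type strain, values averaged over two biological replicates.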

SMILES	relative growth
O=C(C[C@H]1CC[C@@H]2[C@H](COC[C@@H](O)CN2Cc2cc(F)ccc2F)O1)N[C@H]1CCN(Cc2ccccc2)C1	inactive: 1.02
C[C@H](CO)N1C[C@H](C)[C@H](CN(C)S(=O)(=O)c2ccc(C#N)cc2)Oc2ncc(-c3cccc(F)c3)cc2C1=O	inactive: 1
CC(C)NC(=O)Nc1ccc2c(c1)CC(=O)N([C@H](C)CO)C[C@H](C)[C@@H](CN(C)C(=O)Nc1ccc3c(c1)OCO3)O2	inactive: 1.01
C[C@H](CO)N1C[C@H](C)[C@@H](CN(C)C(=O)Nc2ccc(F)cc2)OCCCC[C@H](C)Oc2ccc(NC(=O)CCCN(C)C)cc2C1=O	inactive: 0.986
COc1cccc(NC(=O)N(C)C[C@H]2Oc3ncc(Br)cc3C(=O)N([C@H](C)CO)C[C@H]2C)c1	inactive: 1
CO[C@@H](CN(C)S(=O)(=O)c1cccc(Cl)c1)[C@H](C)CN([C@@H](C)CO)S(=O)(=O)c1ccc(Cl)cc1	inactive: 0.917
C[C@H]1CN([C@@H](C)CO)C(=O)c2cccc(NC(=O)C3CCOCC3)c2O[C@@H]1CN(C)S(=O)(=O)c1ccc(Cl)cc1	inactive: 0.994
O=C(C[C@@H]1CC[C@@H]2[C@H](COC[C@@H](O)CN2S(=O)(=O)c2ccc(Cl)cc2)O1)NCc1ccncn1	inactive: 1.02
C[C@H]1CN([C@@H](C)CO)S(=O)(=O)c2ccc(C#Cc3ccncc3)cc2O[C@H]1CN(C)C(=O)C1CCOCC1	inactive: 0.969
COCC(=O)N1CC[C@]2(CC1)CN([C@H](CO)c1[nH]c3cc(ccc3c12)OC)C(=O)Nc1ccccc1F	inactive: 0.988
C[C@@H]1CN([C@H](C)CO)C(=O)c2cccc(NC(=O)C3CC3)c2O[C@@H]1CN(C)S(=O)(=O)c1ccc(Cl)cc1	inactive: 0.924
C[C@@H]1CN([C@@H](C)CO)C(=O)Cc2cc(NC(=O)Nc3ccc(C(F)(F)F)cc3)ccc2O[C@@H]1CN(C)Cc1ccc(C(=O)O)cc1	inactive: 0.994
C[C@@H]1CN([C@H](C)CO)C(=O)c2cccc(NS(=O)(=O)c3cn(C)cn3)c2O[C@@H]1CN(C)Cc1ccc2c(c1)OCO2	inactive: 0.997
C[C@H]1CN([C@@H](C)CO)S(=O)(=O)c2ccc(Br)cc2O[C@H]1CN(C)S(=O)(=O)c1ccccc1	inactive: 1
C[C@H](CO)N1C[C@H](C)[C@H](CN(C)S(C)(=O)=O)Oc2ccc(NC(=O)CCCCCC(=O)Nc3ccccc3N)cc2C1=O	inactive: 1.01
C[C@@H]1CN([C@H](C)CO)C(=O)c2cc(NC(=O)Cn3cnnn3)ccc2O[C@H]1CN(C)Cc1ccc(C(F)(F)F)cc1	inactive: 0.995
C[C@@H]1CCCCO[C@H](CN(C)C(=O)Cc2ccccc2)[C@H](C)CN([C@H](C)CO)C(=O)c2cc(NS(=O)(=O)c3ccc(Cl)cc3)ccc2O1	inactive: 1.02
C[C@H](CO)N1C[C@H](C)[C@H](CN(C)C(=O)CCN2CCCCC2)Oc2ncc(C#CCN(C)C)cc2C1=O	inactive: 0.999
C[C@H]1CN([C@@H](C)CO)C(=O)c2cc(NC(=O)CCCCCC(=O)Nc3ccccc3N)ccc2O[C@@H]1CN(C)Cc1ccccc1	inactive: 1.01

SMILES	relative growth
O=C(C[C@H]1C=C[C@H](NC(=O)c2cccnc2)[C@@H](CO)O1)NCc1ccncn1	inactive: 0.995
CC(C(=O)O)C(=O)O	inactive: 0.981
C[C@H]1CCCCO[C@@H](CN(C)C(=O)Nc2ccccc2)[C@@H](C)CN([C@@H](C)CO)C(=O)c2cc(NC(=O)Nc3ccc(F)cc3)ccc2O1	inactive: 1.02
O=C(C[C@H]1C=C[C@H](NC(=O)Cc2ccccn2)[C@H](CO)O1)NCCc1ccncc1	inactive: 0.99
C[C@@H]1CN([C@H](C)CO)C(=O)Cc2cc(NC(=O)Nc3ccc4c(c3)OCO4)ccc2O[C@H]1CN(C)Cc1ccc(-c2ccccc2)cc1	inactive: 1.02
Cc1noc(C)c1S(=O)(=O)N(C)C[C@H]1OCc2cnnn2CCCC(=O)N([C@@H](C)CO)C[C@H]1C	inactive: 1.01
COc1cccc(S(=O)(=O)Nc2ccc3c(c2)[C@@H]2C[C@@H](CC(=O)N4CCCCC4)O[C@H](CO)[C@@H]2O3)c1	inactive: 0.984
C[C@H](CO)N1C[C@H](C)[C@H](CN(C)C(=O)c2ccccc2F)Oc2cc(C#CCN(C)C)ccc2S1(=O)=O	inactive: 1.04
Cn1cc(CN2CCn3nnc(CO)c3C2)cn1	inactive: 0.986
C[C@H]1CN([C@@H](C)CO)C(=O)Cc2cc(NC(=O)NC3CCCCC3)ccc2O[C@@H]1CN(C)C(=O)Nc1cccc2ccccc12	inactive: 0.967
C[C@@H]1CN([C@H](C)CO)C(=O)c2cc(NS(=O)(=O)c3ccccc3)ccc2O[C@H]1CN(C)Cc1ccc(-c2ccccc2)cc1	inactive: 1.02
CC12C=CC(=O)C=C1CCC1C2C(O)CC2(C)C1CCC2(O)C(=O)COC(=O)CCC(=O)O (stereo not drawn)	inactive: 0.912
C=C1C(=O)OC2C1CCC(C)=CCCC1(C)OC21 (stereo not drawn)	inactive: 0.976
CN1C(=O)c2cc(NC(=O)Cc3cccs3)ccc2OC[C@H]2O[C@@H](CC(=O)NCCCN3CCOCC3)CC[C@@H]21	inactive: 0.983
C[C@@H]1CN([C@H](C)CO)S(=O)(=O)c2ccc(C#Cc3ccc(F)cc3)cc2O[C@@H]1CN(C)S(C)(=O)=O	inactive: 1.02
C[C@H](CO)N1C[C@H](C)[C@@H](CN(C)Cc2ccc(Cl)c(Cl)c2)Oc2ccc(NC(=O)NC3CCCCC3)cc2CC1=O	inactive: 1.02
COc1ccc(S(=O)(=O)N(C)C[C@@H]2Oc3ccc(NS(=O)(=O)c4ccccc4)cc3C(=O)N([C@@H](C)CO)C[C@H]2C)cc1	inactive: 1.04
C[C@@H]1CCCCO[C@@H](CN(C)S(=O)(=O)c2ccccc2)[C@H](C)CN([C@@H](C)CO)C(=O)c2cc(NC(=O)NC3CCCCC3)ccc2O1	inactive: 1.01
Cc1noc(C)c1NC(=O)Nc1ccc2c(c1)C(=O)N([C@H](C)CO)C[C@H](C)[C@@H](CN(C)C(=O)C1CCCCC1)OCCCC[C@H](C)O2	inactive: 1.03
